Measurements reported in article PMC7819943, “Rice protein-binding microarrays: a tool to detect cis-acting elements near promoter regions in rice”.
The list shows a part of the results.

Target: T1, OsWOX13 (Oryza sativa, UniProt Q5QMM3 1-267)
T1 sequence: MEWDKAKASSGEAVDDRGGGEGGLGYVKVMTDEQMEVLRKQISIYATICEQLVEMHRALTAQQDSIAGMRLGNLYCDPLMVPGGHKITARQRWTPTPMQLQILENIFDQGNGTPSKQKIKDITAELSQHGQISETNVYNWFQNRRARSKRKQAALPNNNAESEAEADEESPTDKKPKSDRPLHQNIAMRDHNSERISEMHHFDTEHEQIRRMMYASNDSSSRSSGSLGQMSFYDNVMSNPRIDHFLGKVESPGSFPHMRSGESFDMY
Assay: protein-binding microarray (RPBM); PBS, 2% BSA, 51.3 ng/ul salmon testes DNA, 50 uM zinc acetate, 200 nM TF, 25 C, 1 h; high values mean tight binding
Settings: protein: recombinant; tags: N-terminal polyhistidine and DsRed monomer fusion (pET32a); label: CyDye5-dUTP incorporated in the synthesized complementary strand; 3' TTTTT single-stranded linker to array surface; dsDNA, one strand shown
Outline: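 Ni–NTA purification followed expression in E. coli BL21-CodonPlus of transcription factors fused N-terminally to a polyhistidine tag and DsRed. At 200 nM in PBS with 2% BSA, salmon testes DNA and 50 µM zinc acetate, the protein was incubated for 1 h at 25 °C with a custom Agilent array that had been primer-extended with Cy5-dUTP and blocked with 2% BSA. After washing, the array was read on an Axon 4000B scanner. The binding signal is per-feature fluorescence intensity in arbitrary units.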

| Sequence | binding signal |
| --- | --- |
| CACAAATTAGTTCAGAAATTACTAGTGAATTTCTGGGCGTCGGAGTCACCTAGTGCAG | 35500 fluorescence intensity (a.u.) |
| ACCTTAATGGAGAAGGAGATGAATCTCAGCCGCGTCATCCCGGAGTCACCTAGTGCAG | 9070 fluorescence intensity (a.u.) |
| TACTAATTTAGAGTATTAAACATAAACTAATAATAAAAGTCGGAGTCACCTAGTGCAG | 9830 fluorescence intensity (a.u.) |
| GTGACAAGTACTAATTAATTACCCACATCTCCCAAGGACCCGGAGTCACCTAGTGCAG | 19800 fluorescence intensity (a.u.) |
| TCCTGATAGGGCTAGGTAGCGGTTGGTTAATGTGGTGAGGCGGAGTCACCTAGTGCAG | 4990 fluorescence intensity (a.u.) |
| TTTAGATAATTACTGATTGTGTGTTTGGCCAGGAACTAGGCGGAGTCACCTAGTGCAG | 22000 fluorescence intensity (a.u.) |
| GCTTAAATCAACGGCCGAGATTACTCGGAGACTCTTCGCACGGAGTCACCTAGTGCAG | 8740 fluorescence intensity (a.u.) |
| CTGATTACAGCTGTACTACGCTACACTGTCTGTATTGCTACGGAGTCACCTAGTGCAG | 3710 fluorescence intensity (a.u.) |
| ATATAAATCAGAAAGGAATTTCGCACAGATGCACGGGCTTCGGAGTCACCTAGTGCAG | 3480 fluorescence intensity (a.u.) |
| TCTGTCAACTGCTAATTAACTTTATGAAACGCTGATGCTTCGGAGTCACCTAGTGCAG | 15700 fluorescence intensity (a.u.) |
| AACAAACTAAATTGAGTTTAAATTTCACCCAAATTTATTTCGGAGTCACCTAGTGCAG | 15400 fluorescence intensity (a.u.) |
| TACTTTGATTTGCACACAATCAAATGTACAGTAGTACATGCGGAGTCACCTAGTGCAG | 28500 fluorescence intensity (a.u.) |
| ATAACTGTAACATTGCATTGAATGTCTTGGCTCCCAGCTTCGGAGTCACCTAGTGCAG | 3920 fluorescence intensity (a.u.) |
| TCCTCTAATTTTCCTCTTGGGTGGTGCATCAGTATATTCTCGGAGTCACCTAGTGCAG | 3440 fluorescence intensity (a.u.) |
| TGTCTCAGATTTACTATAGCTAATTACACAAATTTTGTGGCGGAGTCACCTAGTGCAG | 4750 fluorescence intensity (a.u.) |
| AATAAAACAACTTGTGATTATGTACATAGACATACTCTTACGGAGTCACCTAGTGCAG | 4310 fluorescence intensity (a.u.) |
| TATATGATGAGAGGTTGACGGTTAATTTAGAACATTAGCCCGGAGTCACCTAGTGCAG | 8870 fluorescence intensity (a.u.) |
| ACAAATTAAACTGTAGCTAGTTAACATATATTTAGAGTCACGGAGTCACCTAGTGCAG | 8030 fluorescence intensity (a.u.) |
| AATCTCAAATTTAAACAGATGACAATCCAGTTGTCAAGTACGGAGTCACCTAGTGCAG | 5560 fluorescence intensity (a.u.) |
| GGGTTAATTTGTACATTGCTCTCTGCCATGGCGGCGCCGGCGGAGTCACCTAGTGCAG | 17600 fluorescence intensity (a.u.) |
| GGGTAAAGATCAAAGTTAATTATTCTCGCGATTACTGTCACGGAGTCACCTAGTGCAG | 4700 fluorescence intensity (a.u.) |
| GGAAATTGTTGATTTGGACAGGGAAACTGTAATTGGCACCCGGAGTCACCTAGTGCAG | 44100 fluorescence intensity (a.u.) |
| GGTTGATGGGCTGACGAACTGGGCAAGTTCGCGTCAAAATCGGAGTCACCTAGTGCAG | 5670 fluorescence intensity (a.u.) |
